# According to PubChem BioAssay AID504832 (National Center for Advancing Translational Sciences (NCATS), 2011):
# Hit rate of the full screen: of about 310,000 compounds, about 18,000 (5.8%) were called active. The inconclusive results got no clear call from the source; some entries with a clear call stand among them for comparison. Calls follow the shape of the dose curve; as a rule, active = well fitted inhibition curve with a large enough effect; inconclusive = small, poorly fitted or top-dose-only effect, or another doubt; inactive = no such curve, though single readings can be large or run the other way. Potencies of inconclusive entries are left out as doubtful fits.
# Assay: Primary qHTS for delayed death inhibitors of the malarial parasite plastid, 48 hour incubation
# Settings: P. falciparum luciferase growth in erythrocytes; series mostly up to 28.7 µM
# Method in brief: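 Here the parasites carry a stable luciferase gene and grow inside erythrocytes in Albumax-based RPMI medium with compound for one erythrocytic cycle. Activity is scored as loss of luminescent signal.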
# Potency is read from the fitted curve at half-maximal effect; tags tell the direction and shape of the fitted curve.
row,SMILES,Potency
1,O=C(NCc1ccccc1F)C(=O)NCC1CCCN1S(=O)(=O)c1cccs1 (centres undefined),"inconclusive [inhibitor, single point]"
2,Cc1nc(C)c(-c2ccc(SCC(=O)Nc3cccc(F)c3)nn2)s1,inactive
3,CC1=C(C(=O)OCC2CCCO2)C(c2coc3ccccc3c2=O)C2=C(CC(C)(C)CC2=O)N1 (centres undefined),"inconclusive [inhibitor, single point]"
4,O=C(Nc1ccccc1C(=O)N1CCCCC1)c1cccc(S(=O)(=O)N2CCOCC2)c1,inactive
5,COc1cc2c(cc1OC)CN(CC(=O)NC(=O)NCc1ccccc1)CC2,active: 9.28 µM
6,COCCNC(=O)C(c1ccc(O)cc1)N(Cc1cccs1)C(=O)CCC(=O)Nc1ccccn1 (centres undefined),inactive
7,COc1ccc(C(=O)Nc2ccccc2N2CCOCC2)cc1Br,"inconclusive [inhibitor, single point]"
8,O=P(CCCCCCCCCP(=O)(c1ccccc1)c1ccccc1)(c1ccccc1)c1ccccc1,active: 1.31 µM
9,CS(=O)(=O)N(Cc1ccccc1)c1ccc(C(=O)NN=C2CCCCCC2)cc1,"inconclusive [inhibitor, single point]"
10,CCOc1cc(/C=N/NC(=O)C2CCCC2)ccc1OC(C)C,inactive
11,CC(NC(=O)c1ccc(S(C)(=O)=O)cc1)c1cccc2ccccc12 (centres undefined),"inconclusive [inhibitor, partial curve, poor fit]"
12,CCN(C(=O)COC(=O)c1cc(S(=O)(=O)N2CCOCC2)ccc1F)C1CCS(=O)(=O)C1 (centres undefined),"inconclusive [inhibitor, partial curve, poor fit]"
13,CCCCCC(=O)N1CC2(CC(c3cccc(NC(=O)COc4ccc(Cl)cc4)c3)=NO2)C[C@@H]1C(N)=O (some centres undefined),active: 10.4 µM
14,COc1ccc(-n2cc(-c3ccccc3)c3c(NCCOCCO)ncnc32)cc1,"inconclusive [inhibitor, single point]"
15,CCCCN1C(=O)/C(=C2\SC(N3CCOCC3)=NC2=O)c2ccccc21,inactive
16,Cc1cc(C(=O)CCC(=O)NCC2COc3ccccc3O2)c(C)s1 (centres undefined),"inconclusive [inhibitor, partial curve, poor fit]"
17,CC(=O)Nc1sc(C)c(C)c1C(=O)OCC(=O)N(C)c1c(N)n(Cc2ccccc2)c(=O)[nH]c1=O,"inconclusive [inhibitor, single point]"
18,COc1ccc(-c2csc(NC(=O)CSC(C)C(=O)Nc3cc(C)on3)n2)cc1OC (centres undefined),"inconclusive [inhibitor, single point]"
19,O=C(N1CCOCC1)N1CCC(c2nc(-c3ccc(S(=O)(=O)N4CCOCC4)cc3)no2)CC1,inactive
20,CN(C)c1ccc(/C=N\Nc2ccccn2)cc1,inactive
21,Cn1c2ccccc2c2cc(C(=O)NNS(=O)(=O)c3ccc(F)cc3)sc21,"inconclusive [inhibitor, single point]"
22,O=C(NCCCNc1ccnc2cc(Cl)ccc12)c1ccccc1F,active: 0.465 µM
23,CCOC(=O)C1CCCN(C(=O)CC(c2ccccc2)c2ccccc2)C1 (centres undefined),"inconclusive [inhibitor, single point]"

row,SMILES,Potency
1,O=C(N[C@@H](Cc1ccccc1)C(=O)OCc1ccccc1)c1nc[nH]c1C(=O)N1CCN(c2ccccc2)CC1,"inconclusive [inhibitor, single point]"
2,Cc1nc(NC(=O)/C=C/c2ccccc2)sc1C(=O)N1CCCCC1,inactive
3,Cc1csc2cc(-c3cccc([N+](=O)[O-])c3)c(-c3cccc([N+](=O)[O-])c3)c[n+]12,active: 1.04 µM
4,COc1ccc2nc(NC3=NC(c4ccccc4)CC(=O)N3)nc(C)c2c1 (centres undefined),"inconclusive [inhibitor, single point]"
5,CC(=O)Oc1ccccc1C(=O)Nc1ncc([N+](=O)[O-])s1,"inconclusive [inhibitor, single point]"
6,N#Cc1ccc(C23CC4(C2)[C@H](CN(Cc2ccc(-c5ccccc5)cc2)[C@@H]4c2ccccc2)C3c2ccc(Cl)nc2)cc1 (some centres undefined),"inconclusive [inhibitor, partial curve]"
7,CC(=O)Nc1cccc(NC(=O)c2cc(-c3ccccn3)nc3ccc(Cl)cc23)c1,inactive
8,Cc1ccc(S(=O)(=O)N2CN(Cc3ccco3)c3nc4ccccc4nc32)cc1,"inconclusive [inhibitor, full curve, poor fit]"
9,COc1ccc(NC(=O)c2cc(S(=O)(=O)N3CCOCC3)cn2C)cc1Cl,inactive
10,CC(C)C(=O)NNc1nc2ccccc2s1,inactive
11,O=C1CNC(=S)N1C(CO)c1ccccc1 (centres undefined),inactive
12,Cc1ccc(CN(Cc2cc3cccc(C)c3[nH]c2=O)C(=S)NCCCN(C)C)cc1,"inconclusive [inhibitor, single point]"
13,Cc1cccc(C)c1NC(=O)CS(=O)CC(=O)Nc1ccc(N2CCOCC2)cc1 (centres undefined),inactive
14,Cc1noc(C)c1CSCC(=O)N(C)CC(=O)Nc1ccc(F)c(F)c1F,"inconclusive [inhibitor, partial curve, poor fit]"
15,COc1ccc(N2CCN(Cc3cc(=O)c(OCC(=O)NC4CCCC4)co3)CC2)cc1,"inconclusive [inhibitor, partial curve]"
16,CCOC(=O)N1CCC(Nc2c(N3CCN(c4cccc(C(F)(F)F)c4)CC3)c(=O)c2=O)CC1,"inconclusive [inhibitor, partial curve, poor fit]"
17,O=C(O)C1C2C=CC(C2)C1C(=O)NC1CCS(=O)(=O)C1 (centres undefined),inactive
18,Cc1c(CCO)c(=O)n(-c2ccccc2)n1S(=O)(=O)c1ccc(Cl)cc1,inactive
19,CC(=O)C1=C(C)NC(SCC(=O)c2ccc(Cl)cc2)=C(C#N)C1c1ccco1 (centres undefined),"inconclusive [inhibitor, single point]"
20,O=[N+]([O-])c1cccc2ccc(/C=C/c3ccc(Cl)cc3)nc12,inactive
21,Oc1[nH]c2ccc(Br)cc2c1N=NC(=S)Nc1ccc(F)cc1,"inconclusive [inhibitor, full curve]"
22,COc1ccc(CN2CCN(Cc3cn(C)nc3-c3ccccc3)CC2CCO)c(C)c1C (centres undefined),"inconclusive [inhibitor, single point]"
23,COc1cccc(CNC(=O)CCl)c1,"inconclusive [inhibitor, single point]"

row,SMILES,Potency
1,Cc1ccc(-n2c(C)cc(/C=C3/SC(=O)N(CC(=O)N4CCOCC4)C3=O)c2C)nc1,inactive
2,COc1ccc(/C=N/NC(=O)CN(CCc2ccccc2)S(=O)(=O)c2ccc(NC(C)=O)cc2)cc1OC,"inconclusive [inhibitor, partial curve]"
3,Cc1nn(C)cc1CN(C)C(=O)c1cc2nc(-c3ccco3)cc(C(F)(F)F)n2n1,"inconclusive [inhibitor, single point]"
4,COc1ccc(OC)c(-c2oc3ccccc3c(=O)c2O)c1,"inconclusive [inhibitor, single point]"
5,C/C=C/c1ccc(OCCCCOc2ccc(OC)cc2)c(OC)c1,inactive
6,c1cncc(-c2nn[nH]n2)c1,inactive
7,O=C(c1c[nH]c2ccccc12)N1CCOCC1,"inconclusive [inhibitor, single point]"
8,CCOc1ccc(CCNC(=O)COC(=O)/C=C/c2ccccc2)cc1OCC,"inconclusive [inhibitor, partial curve]"
9,CC(=O)c1cnn(-c2ccc(Cl)c(Cl)c2Cl)c1C,inactive
10,O=C(CCc1ccccc1)N=C1SC2CS(=O)(=O)CC2N1Cc1ccccc1 (centres undefined),"inconclusive [inhibitor, single point]"
11,CC(C)(C)NC(=O)C(c1ccc(F)cc1)N(C(=O)CCC(=O)Nc1ccccn1)C1CCCC1 (centres undefined),"inconclusive [inhibitor, single point]"
12,COc1ccc(N2CCN(C(=O)Cn3cncn3)CC2)cc1,"inconclusive [inhibitor, single point]"
13,CC1CCN(S(=O)(=O)c2ccc(NC(=O)C3CCN(C(=O)c4ccco4)CC3)cc2)CC1,"inconclusive [inhibitor, single point]"
14,Cc1ccc2c(c1)c1c3n2CCN(CC(N)=O)C3CCC1 (centres undefined),active: 13.1 µM
15,COc1ccc(C)cc1NC(=O)CSc1nc2scc(C)c2c(=O)[nH]1,"inconclusive [inhibitor, single point]"
16,COc1cccc(C(=O)Nc2ccc(NC(=O)C3CCCCC3)nc2)c1,"inconclusive [inhibitor, single point]"
17,Cc1cccc(C2CC3(CC(C)(C)NC(=S)N3)Oc3cc(O)ccc32)c1 (centres undefined),"inconclusive [inhibitor, partial curve, poor fit]"
18,CC1=CC(=C(C#N)C#N)c2ccccc2N1C,active: 11.7 µM
19,Cc1ccc(S(=O)(=O)N2c3ccccc3OCC2C(C)(C)C)cc1 (centres undefined),active: 9.28 µM
20,Oc1ccc(Br)cc1-c1ccnn1-c1ccccc1,"inconclusive [inhibitor, partial curve, poor fit]"
21,Cc1ccc(-n2nnnc2SCC(=O)NC2CC2)cc1C,"inconclusive [inhibitor, full curve]"
22,CC(C)Cc1ccc(CN2CCC(n3nccc3NC(=O)C3CCCC3)CC2)cc1,"inconclusive [inhibitor, single point]"
23,COc1ccc(NC(=O)CSc2ccc(-c3cccnc3)nn2)c(OC)c1,"inconclusive [inhibitor, partial curve, poor fit]"
